B1: TNFα dAb Fc variant T85D (Fc fusion, name in Kabat numbering)
chain: DIQMTQSPSSLSASVGDRVTITCRASQAIDSYLHWYQQKPGKAPKLLIYSASNLETGVPSRFSGSGSGTDFTLTISSLLPEDFADYYCQQVVWRPFTFGQGTKVEIKRV[human IgG1 Fc with changes left out]
B2: TNFα dAb Fc variant T85H (Fc fusion, name in Kabat numbering)
chain: DIQMTQSPSSLSASVGDRVTITCRASQAIDSYLHWYQQKPGKAPKLLIYSASNLETGVPSRFSGSGSGTDFTLTISSLLPEDFAHYYCQQVVWRPFTFGQGTKVEIKRV[human IgG1 Fc with changes left out]
B3: TNFα dAb Fc variant T85K (Fc fusion, name in Kabat numbering)
chain: DIQMTQSPSSLSASVGDRVTITCRASQAIDSYLHWYQQKPGKAPKLLIYSASNLETGVPSRFSGSGSGTDFTLTISSLLPEDFAKYYCQQVVWRPFTFGQGTKVEIKRV[human IgG1 Fc with changes left out]
B4: TNFα dAb Fc variant T85L (Fc fusion, name in Kabat numbering)
chain: DIQMTQSPSSLSASVGDRVTITCRASQAIDSYLHWYQQKPGKAPKLLIYSASNLETGVPSRFSGSGSGTDFTLTISSLLPEDFALYYCQQVVWRPFTFGQGTKVEIKRV[human IgG1 Fc with changes left out]
B5: TNFα dAb Fc variant T85P (Fc fusion, name in Kabat numbering)
chain: DIQMTQSPSSLSASVGDRVTITCRASQAIDSYLHWYQQKPGKAPKLLIYSASNLETGVPSRFSGSGSGTDFTLTISSLLPEDFAPYYCQQVVWRPFTFGQGTKVEIKRV[human IgG1 Fc with changes left out]
B6: TNFα dAb Fc variant T85Q (Fc fusion, name in Kabat numbering)
chain: DIQMTQSPSSLSASVGDRVTITCRASQAIDSYLHWYQQKPGKAPKLLIYSASNLETGVPSRFSGSGSGTDFTLTISSLLPEDFAQYYCQQVVWRPFTFGQGTKVEIKRV[human IgG1 Fc with changes left out]
B7: TNFα dAb Fc variant T85Y (Fc fusion, name in Kabat numbering)
chain: DIQMTQSPSSLSASVGDRVTITCRASQAIDSYLHWYQQKPGKAPKLLIYSASNLETGVPSRFSGSGSGTDFTLTISSLLPEDFAYYYCQQVVWRPFTFGQGTKVEIKRV[human IgG1 Fc with changes left out]
B8: TNFα dAb Fc variant V58A (Fc fusion, name in Kabat numbering)
chain: DIQMTQSPSSLSASVGDRVTITCRASQAIDSYLHWYQQKPGKAPKLLIYSASNLETGAPSRFSGSGSGTDFTLTISSLLPEDFATYYCQQVVWRPFTFGQGTKVEIKRV[human IgG1 Fc with changes left out]
B9: TNFα dAb Fc variant V58D (Fc fusion, name in Kabat numbering)
chain: DIQMTQSPSSLSASVGDRVTITCRASQAIDSYLHWYQQKPGKAPKLLIYSASNLETGDPSRFSGSGSGTDFTLTISSLLPEDFATYYCQQVVWRPFTFGQGTKVEIKRV[human IgG1 Fc with changes left out]
B10: TNFα dAb Fc variant V58H (Fc fusion, name in Kabat numbering)
chain: DIQMTQSPSSLSASVGDRVTITCRASQAIDSYLHWYQQKPGKAPKLLIYSASNLETGHPSRFSGSGSGTDFTLTISSLLPEDFATYYCQQVVWRPFTFGQGTKVEIKRV[human IgG1 Fc with changes left out]
B11: TNFα dAb Fc variant V58K (Fc fusion, name in Kabat numbering)
chain: DIQMTQSPSSLSASVGDRVTITCRASQAIDSYLHWYQQKPGKAPKLLIYSASNLETGKPSRFSGSGSGTDFTLTISSLLPEDFATYYCQQVVWRPFTFGQGTKVEIKRV[human IgG1 Fc with changes left out]
B12: TNFα dAb Fc variant V58P (Fc fusion, name in Kabat numbering)
chain: DIQMTQSPSSLSASVGDRVTITCRASQAIDSYLHWYQQKPGKAPKLLIYSASNLETGPPSRFSGSGSGTDFTLTISSLLPEDFATYYCQQVVWRPFTFGQGTKVEIKRV[human IgG1 Fc with changes left out]
B13: TNFα dAb Fc variant V58Q (Fc fusion, name in Kabat numbering)
chain: DIQMTQSPSSLSASVGDRVTITCRASQAIDSYLHWYQQKPGKAPKLLIYSASNLETGQPSRFSGSGSGTDFTLTISSLLPEDFATYYCQQVVWRPFTFGQGTKVEIKRV[human IgG1 Fc with changes left out]
B14: TNFα dAb Fc variant V58S (Fc fusion, name in Kabat numbering)
chain: DIQMTQSPSSLSASVGDRVTITCRASQAIDSYLHWYQQKPGKAPKLLIYSASNLETGSPSRFSGSGSGTDFTLTISSLLPEDFATYYCQQVVWRPFTFGQGTKVEIKRV[human IgG1 Fc with changes left out]
B15: TNFα dAb Fc variant V58Y (Fc fusion, name in Kabat numbering)
chain: DIQMTQSPSSLSASVGDRVTITCRASQAIDSYLHWYQQKPGKAPKLLIYSASNLETGYPSRFSGSGSGTDFTLTISSLLPEDFATYYCQQVVWRPFTFGQGTKVEIKRV[human IgG1 Fc with changes left out]
B16: TNFα dAb Fc variant Y36A (Fc fusion, name in Kabat numbering)
chain: DIQMTQSPSSLSASVGDRVTITCRASQAIDSYLHWAQQKPGKAPKLLIYSASNLETGVPSRFSGSGSGTDFTLTISSLLPEDFATYYCQQVVWRPFTFGQGTKVEIKRV[human IgG1 Fc with changes left out]
B17: TNFα dAb Fc variant Y36D (Fc fusion, name in Kabat numbering)
chain: DIQMTQSPSSLSASVGDRVTITCRASQAIDSYLHWDQQKPGKAPKLLIYSASNLETGVPSRFSGSGSGTDFTLTISSLLPEDFATYYCQQVVWRPFTFGQGTKVEIKRV[human IgG1 Fc with changes left out]
B18: TNFα dAb Fc variant Y36H (Fc fusion, name in Kabat numbering)
chain: DIQMTQSPSSLSASVGDRVTITCRASQAIDSYLHWHQQKPGKAPKLLIYSASNLETGVPSRFSGSGSGTDFTLTISSLLPEDFATYYCQQVVWRPFTFGQGTKVEIKRV[human IgG1 Fc with changes left out]
B19: TNFα dAb Fc variant Y36K (Fc fusion, name in Kabat numbering)
chain: DIQMTQSPSSLSASVGDRVTITCRASQAIDSYLHWKQQKPGKAPKLLIYSASNLETGVPSRFSGSGSGTDFTLTISSLLPEDFATYYCQQVVWRPFTFGQGTKVEIKRV[human IgG1 Fc with changes left out]
B20: TNFα dAb Fc variant Y36L (Fc fusion, name in Kabat numbering)
chain: DIQMTQSPSSLSASVGDRVTITCRASQAIDSYLHWLQQKPGKAPKLLIYSASNLETGVPSRFSGSGSGTDFTLTISSLLPEDFATYYCQQVVWRPFTFGQGTKVEIKRV[human IgG1 Fc with changes left out]
B21: TNFα dAb Fc variant Y36P (Fc fusion, name in Kabat numbering)
chain: DIQMTQSPSSLSASVGDRVTITCRASQAIDSYLHWPQQKPGKAPKLLIYSASNLETGVPSRFSGSGSGTDFTLTISSLLPEDFATYYCQQVVWRPFTFGQGTKVEIKRV[human IgG1 Fc with changes left out]
B22: TNFα dAb Fc variant Y36Q (Fc fusion, name in Kabat numbering)
chain: DIQMTQSPSSLSASVGDRVTITCRASQAIDSYLHWQQQKPGKAPKLLIYSASNLETGVPSRFSGSGSGTDFTLTISSLLPEDFATYYCQQVVWRPFTFGQGTKVEIKRV[human IgG1 Fc with changes left out]
B23: TNFα dAb Fc variant Y36S (Fc fusion, name in Kabat numbering)
chain: DIQMTQSPSSLSASVGDRVTITCRASQAIDSYLHWSQQKPGKAPKLLIYSASNLETGVPSRFSGSGSGTDFTLTISSLLPEDFATYYCQQVVWRPFTFGQGTKVEIKRV[human IgG1 Fc with changes left out]
B24: TNFα dAb Fc variant Y49P (Fc fusion, name in Kabat numbering)
chain: DIQMTQSPSSLSASVGDRVTITCRASQAIDSYLHWYQQKPGKAPKLLIPSASNLETGVPSRFSGSGSGTDFTLTISSLLPEDFATYYCQQVVWRPFTFGQGTKVEIKRV[human IgG1 Fc with changes left out]
B25: TNFα dAb Fc variant Y86A (Fc fusion, name in Kabat numbering)
chain: DIQMTQSPSSLSASVGDRVTITCRASQAIDSYLHWYQQKPGKAPKLLIYSASNLETGVPSRFSGSGSGTDFTLTISSLLPEDFATAYCQQVVWRPFTFGQGTKVEIKRV[human IgG1 Fc with changes left out]
B26: TNFα dAb Fc variant Y86D (Fc fusion, name in Kabat numbering)
chain: DIQMTQSPSSLSASVGDRVTITCRASQAIDSYLHWYQQKPGKAPKLLIYSASNLETGVPSRFSGSGSGTDFTLTISSLLPEDFATDYCQQVVWRPFTFGQGTKVEIKRV[human IgG1 Fc with changes left out]
B27: TNFα dAb Fc variant Y86H (Fc fusion, name in Kabat numbering)
chain: DIQMTQSPSSLSASVGDRVTITCRASQAIDSYLHWYQQKPGKAPKLLIYSASNLETGVPSRFSGSGSGTDFTLTISSLLPEDFATHYCQQVVWRPFTFGQGTKVEIKRV[human IgG1 Fc with changes left out]
B28: TNFα dAb Fc variant Y86K (Fc fusion, name in Kabat numbering)
chain: DIQMTQSPSSLSASVGDRVTITCRASQAIDSYLHWYQQKPGKAPKLLIYSASNLETGVPSRFSGSGSGTDFTLTISSLLPEDFATKYCQQVVWRPFTFGQGTKVEIKRV[human IgG1 Fc with changes left out]
B29: TNFα dAb Fc variant Y86L (Fc fusion, name in Kabat numbering)
chain: DIQMTQSPSSLSASVGDRVTITCRASQAIDSYLHWYQQKPGKAPKLLIYSASNLETGVPSRFSGSGSGTDFTLTISSLLPEDFATLYCQQVVWRPFTFGQGTKVEIKRV[human IgG1 Fc with changes left out]
B30: TNFα dAb Fc variant Y86P (Fc fusion, name in Kabat numbering)
chain: DIQMTQSPSSLSASVGDRVTITCRASQAIDSYLHWYQQKPGKAPKLLIYSASNLETGVPSRFSGSGSGTDFTLTISSLLPEDFATPYCQQVVWRPFTFGQGTKVEIKRV[human IgG1 Fc with changes left out]
B31: TNFα dAb Fc variant Y86Q (Fc fusion, name in Kabat numbering)
chain: DIQMTQSPSSLSASVGDRVTITCRASQAIDSYLHWYQQKPGKAPKLLIYSASNLETGVPSRFSGSGSGTDFTLTISSLLPEDFATQYCQQVVWRPFTFGQGTKVEIKRV[human IgG1 Fc with changes left out]

These binders were tested against T1, recombinant human TNFα (CytoLab) (human, UniProt P01375 partial chain) (assay: ELISA on coated human TNFα).
T1 construct: coated on the ELISA plate at 1 µg/ml; also called Tumour necrosis factor alpha
T1 sequence (P01375 77-233 limits assumed): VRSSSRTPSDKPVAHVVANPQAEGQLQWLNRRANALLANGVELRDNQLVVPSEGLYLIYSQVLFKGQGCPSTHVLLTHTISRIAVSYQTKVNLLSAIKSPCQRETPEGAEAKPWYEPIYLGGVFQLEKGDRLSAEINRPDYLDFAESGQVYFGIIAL

Row | A450 (AU) | Binder
1 | 0.59 AU | B1
2 | 0.769 AU | B2
3 | 0.682 AU | B3
4 | 0.742 AU | B4
5 | 0.195 AU | B5
6 | 0.764 AU | B6
7 | 0.895 AU | B7
8 | 1.02 AU | B8
9 | 0.185 AU | B9
10 | 0.22 AU | B10
11 | 0.205 AU | B11
12 | 0.255 AU | B12
13 | 0.207 AU | B13
14 | 0.399 AU | B14
15 | 0.247 AU | B15
16 | 0.185 AU | B16

Row | A450 (AU) | Binder
17 | 0.168 AU | B17
18 | 0.149 AU | B18
19 | 0.378 AU | B19
20 | 0.237 AU | B20
21 | 0.243 AU | B21
22 | 0.167 AU | B22
23 | 0.263 AU | B23
24 | 0.188 AU | B24
25 | 0.153 AU | B25
26 | 0.194 AU | B26
27 | 0.212 AU | B27
28 | 0.185 AU | B28
29 | 0.205 AU | B29
30 | 0.182 AU | B30
31 | 0.204 AU | B31

Source: patent US20110319597A1 (CAPHALON AUSTRALIA, published 2011)
